# In the supplement of paper PMC8728848:
# The list shows a part of the results.
# Columns and labels:
# Test in all cases: glycan array binding signal (z-score within array); higher = stronger binding
# Details in all cases: glycan notation: IUPAC condensed, linker removed
# [1] = target: Fuc(a1-2)Gal(b1-4)[Fuc(a1-3)]GlcNAc
# How it was run: (§1)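 Glycan array data came from 3228 arrays in the Consortium for Functional Glycomics database, and only arrays with an available protein sequence were kept. Glycan names were put into IUPAC-condensed notation, and columns mapping to the same glycan were averaged. The binding signal is a within-array Z-score, averaged across arrays of one protein sequence run at different concentrations or buffers and across linkers. A negative Z-score can be read as non-binding.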
# [2] = target: Fuc(a1-2)Gal(b1-4)[Fuc(a1-3)]GlcNAc(b1-2)Man(a1-3)[Fuc(a1-2)Gal(b1-4)[Fuc(a1-3)]GlcNAc(b1-2)Man(a1-6)]Man(b1-4)GlcNAc(b1-4)[Fuc(a1-6)]GlcNAc
# How it was run: as §1
# [3] = target: Fuc(a1-2)Gal(b1-4)[Fuc(a1-3)]GlcNAc(b1-2)[Fuc(a1-2)Gal(b1-4)[Fuc(a1-3)]GlcNAc(b1-4)]Man(a1-3)[Fuc(a1-2)Gal(b1-4)[Fuc(a1-3)]GlcNAc(b1-2)Man(a1-6)]Man(b1-4)GlcNAc(b1-4)GlcNAc
# How it was run: as §1
# [4] = target: Fuc(a1-2)Gal(b1-4)[Fuc(a1-3)]GlcNAc(b1-3)Gal(b1-4)[Fuc(a1-3)]GlcNAc
# How it was run: as §1
# [5] = target: Fuc(a1-2)Gal(b1-4)[Fuc(a1-3)]GlcNAc(b1-3)Gal(b1-4)[Fuc(a1-3)]GlcNAc(b1-3)Gal(b1-4)[Fuc(a1-3)]GlcNAc
# How it was run: as §1
# [6] = target: Fuc(a1-2)Gal(b1-4)[Fuc(a1-3)]GlcNAc(b1-3)GalNAc
# How it was run: as §1
# [7] = target: Fuc(a1-2)Gal(b1-4)[Fuc(a1-3)]GlcNAc(b1-3)[Neu5Ac(a2-6)Gal(b1-4)GlcNAc(b1-6)]Gal(b1-4)Glc
# How it was run: as §1
# [8] = target: Fuc(a1-2)Gal3S(b1-4)GlcNAc
# How it was run: as §1
# [9] = target: Fuc(a1-2)Gal6S(b1-3)GlcNAc
# How it was run: as §1
# [10] = target: Fuc(a1-2)Gal6S(b1-3)GlcNAc6S
# How it was run: as §1
# [11] = target: Fuc(a1-2)Gal6S(b1-4)Glc
# How it was run: as §1
# [12] = target: Fuc(a1-2)Gal6S(b1-4)Glc6S
# How it was run: as §1
# [13] = target: Fuc(a1-2)GlcNAc
# How it was run: as §1
# [14] = target: Fuc(a1-2)[Gal(a1-3)]Gal
# How it was run: as §1
# [15] = target: Fuc(a1-2)[Gal(a1-3)]Gal(b1-3)GalNAc
# How it was run: as §1
# [16] = target: Fuc(a1-2)[Gal(a1-3)]Gal(b1-3)GalNAc(b1-3)Gal(a1-4)Gal(b1-4)Glc
# How it was run: as §1
# [17] = target: Fuc(a1-2)[Gal(a1-3)]Gal(b1-3)GlcNAc
# How it was run: as §1
# [18] = target: Fuc(a1-2)[Gal(a1-3)]Gal(b1-3)GlcNAc(b1-2)Man(a1-3)[Fuc(a1-2)[Gal(a1-3)]Gal(b1-3)GlcNAc(b1-2)Man(a1-6)]Man(b1-4)GlcNAc(b1-4)GlcNAc
# How it was run: as §1
# [19] = target: Fuc(a1-2)[Gal(a1-3)]Gal(b1-3)GlcNAc(b1-2)Man(a1-3)[Fuc(a1-2)[Gal(a1-3)]Gal(b1-3)GlcNAc(b1-2)Man(a1-6)]Man(b1-4)GlcNAc(b1-4)[Fuc(a1-6)]GlcNAc
# How it was run: as §1
# [20] = target: Fuc(a1-2)[Gal(a1-3)]Gal(b1-3)GlcNAc(b1-3)GalNAc
# How it was run: as §1
# [21] = target: Fuc(a1-2)[Gal(a1-3)]Gal(b1-3)GlcNAc(b1-6)GalNAc
# How it was run: as §1
# [22] = target: Fuc(a1-2)[Gal(a1-3)]Gal(b1-4)Glc
# How it was run: as §1
# [23] = target: Fuc(a1-2)[Gal(a1-3)]Gal(b1-4)GlcNAc
# How it was run: as §1
# [24] = target: Fuc(a1-2)[Gal(a1-3)]Gal(b1-4)GlcNAc(b1-2)Man
# How it was run: as §1
# [25] = target: Fuc(a1-2)[Gal(a1-3)]Gal(b1-4)GlcNAc(b1-2)Man(a1-3)[Fuc(a1-2)[Gal(a1-3)]Gal(b1-4)GlcNAc(b1-2)Man(a1-6)]Man(b1-4)GlcNAc(b1-4)GlcNAc
# How it was run: as §1
# [26] = target: Fuc(a1-2)[Gal(a1-3)]Gal(b1-4)GlcNAc(b1-2)Man(a1-3)[Fuc(a1-2)[Gal(a1-3)]Gal(b1-4)GlcNAc(b1-2)Man(a1-6)]Man(b1-4)GlcNAc(b1-4)[Fuc(a1-6)]GlcNAc
# How it was run: as §1
# [27] = target: Fuc(a1-2)[Gal(a1-3)]Gal(b1-4)GlcNAc(b1-3)GalNAc
# How it was run: as §1
# [28] = target: Fuc(a1-2)[Gal(a1-3)]Gal(b1-4)GlcNAc(b1-3)[Fuc(a1-2)[Gal(a1-3)]Gal(b1-4)GlcNAc(b1-6)]GalNAc
# How it was run: as §1
# [29] = target: Fuc(a1-2)[Gal(a1-3)]Gal(b1-4)GlcNAc(b1-6)GalNAc
# How it was run: as §1
# [30] = target: Fuc(a1-2)[Gal(a1-3)]Gal(b1-4)[Fuc(a1-3)]Glc
# How it was run: as §1
# [31] = target: Fuc(a1-2)[Gal(a1-3)]Gal(b1-4)[Fuc(a1-3)]GlcNAc
# How it was run: as §1
# [32] = target: Fuc(a1-2)[Gal(a1-3)]Gal(b1-4)[Fuc(a1-3)]GlcNAc(b1-3)GalNAc
# How it was run: as §1
# [33] = target: Fuc(a1-2)[Gal(a1-4)]Gal(b1-4)GlcNAc
# How it was run: as §1
# [34] = target: Fuc(a1-2)[GalNAc(a1-3)]Gal
# How it was run: as §1
# [35] = target: Fuc(a1-2)[GalNAc(a1-3)]Gal(b1-3)GalNAc(a1-3)[Fuc(a1-2)]Gal(b1-4)GlcNAc
# How it was run: as §1
# [36] = target: Fuc(a1-2)[GalNAc(a1-3)]Gal(b1-3)GalNAc(b1-3)Gal(a1-4)Gal(b1-4)Glc
# How it was run: as §1
# [37] = target: Fuc(a1-2)[GalNAc(a1-3)]Gal(b1-3)GlcNAc
# How it was run: as §1
# [38] = target: Fuc(a1-2)[GalNAc(a1-3)]Gal(b1-3)GlcNAc(b1-2)Man(a1-3)[Fuc(a1-2)[GalNAc(a1-3)]Gal(b1-3)GlcNAc(b1-2)Man(a1-6)]Man(b1-4)GlcNAc(b1-4)GlcNAc
# How it was run: as §1
binder,measurement,setting,value
"LCA (Lens culinaris), P02870 (protein) MASLQTQMISFYLIFLSILLTTIFFFKVNSTETTSFSITKFSPDQKNLIFQGDGYTTKGKLTLTKAVKSTVGRALYSTPIHIWDRDTGNVANFVTSFTFVIDAPSSYNVADEFTFFIAPVDTKPQTGGGYLGVFNSKEYDKTSQTVAVEFDTFYNAAWDPSNKERHIGIDVNSIKSVNTKSWNLQNGERANVVIAFNAATNVLTVTLTYPNSLEEENVTSYTLNEVVPLKDVVPEWVRIGFSATTGAEFAAHEVHSWSFHSELGGTSSSKQAADA",glycan array binding signal (z-score),[1],-0.223
same,glycan array binding signal (z-score),[2],0.52
same,glycan array binding signal (z-score),[3],-0.194
same,glycan array binding signal (z-score),[4],-0.217
same,glycan array binding signal (z-score),[5],-0.215
same,glycan array binding signal (z-score),[6],-0.136
same,glycan array binding signal (z-score),[7],-0.211
same,glycan array binding signal (z-score),[8],-0.233
same,glycan array binding signal (z-score),[9],-0.249
same,glycan array binding signal (z-score),[10],-0.223
same,glycan array binding signal (z-score),[11],-0.196
same,glycan array binding signal (z-score),[12],-0.212
same,glycan array binding signal (z-score),[13],-0.239
same,glycan array binding signal (z-score),[14],-0.135
same,glycan array binding signal (z-score),[15],-0.199
same,glycan array binding signal (z-score),[16],-0.235
same,glycan array binding signal (z-score),[17],-0.089
same,glycan array binding signal (z-score),[18],-0.228
same,glycan array binding signal (z-score),[19],0.373
same,glycan array binding signal (z-score),[20],-0.238
same,glycan array binding signal (z-score),[21],-0.194
same,glycan array binding signal (z-score),[22],-0.182
same,glycan array binding signal (z-score),[23],-0.215
same,glycan array binding signal (z-score),[24],-0.213
same,glycan array binding signal (z-score),[25],-0.214
same,glycan array binding signal (z-score),[26],0.979
same,glycan array binding signal (z-score),[27],-0.22
same,glycan array binding signal (z-score),[28],-0.222
same,glycan array binding signal (z-score),[29],-0.239
same,glycan array binding signal (z-score),[30],-0.22
same,glycan array binding signal (z-score),[31],-0.18
same,glycan array binding signal (z-score),[32],-0.226
same,glycan array binding signal (z-score),[33],-0.217
same,glycan array binding signal (z-score),[34],-0.216
same,glycan array binding signal (z-score),[35],-0.237
same,glycan array binding signal (z-score),[36],-0.193
same,glycan array binding signal (z-score),[37],-0.223
same,glycan array binding signal (z-score),[38],-0.245
